From patent US20240336682A1 (SHENGHE CHINA BIOPHARMACEUTICAL, published 2024)

T1: Human-NKP30-His (human, UniProt O14931 19-135)
T1 construct: also called NKP30 protein; not shown: His tag
T1 sequence (looked up): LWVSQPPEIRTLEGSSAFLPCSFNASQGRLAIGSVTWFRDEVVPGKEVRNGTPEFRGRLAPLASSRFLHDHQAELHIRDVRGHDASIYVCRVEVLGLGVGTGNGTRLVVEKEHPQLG

B1: CNT-D (other)
light 1: EVQLVESGGGLVQPGGSLRLSCAASGITFSRSVMGWFRQAPGKLRELVAGITSDDNTDYADSVKGRFTISRDNSKNTLYLQMNSLRAEDTAVYYCNILPDSRLGWGQGTLVTVSSGGGGSGGGGSGGGGSEVQLVESGGGLVKPGGSLKLSCTASGFTFSSYVMSWVRQTPEKRLEWVATINDGGSYTYYPDNLKGRFTISRDNAKNNLYLQMSHLRSEDTARYYCSVLRRGNAMDYWGQGTSVTVSSRTVAAPSVFIFPPSDEQLKSGTASVVCLLNNFYPREAKVQWKVDNALQSGNSQESVTEQDSKDSTYSLSSTLTLSKADYEKHKVYACEVTHQGLSSPVTKSFNRGEC
heavy 1: DIVMTQSPSSLTATARERVTMSCKSSQSLLNSGNQKNYLTWYQQKPGQPPKLLIYWASTRESGVPDRFTGSGSGTDFTLTVSSVQAEDLAVYYCQNAYFYPFTFGSGTKLEIK[human IgG1 constant region with changes not spelt out]GGSGGGGSGGGGSGGGGSGIPPHVQKSVNNDMIVTDNNGAVKFPQLCKFCDVRFSTCDNQKSCMSNCSITSICEKPQEVCVAVWRKNDENITLETVCHDPKLPYHDFILEDAASPKCIMKEKKKPGETFFMCSCSSDECNDNIIFSEEYNTSNPD
heavy 2: EVQLVESGGGLVKPGGSLKLSCTASGFTFSSYVMSWVRQTPEKRLEWVATINDGGSYTYYPDNLKGRFTISRDNAKNNLYLQMSHLRSEDTARYYCSVLRRGNAMDYWGQGTSVTVSS[human IgG1 constant region with changes not spelt out]GGSGGGGSGGGGSGGGGSGIPPHVQKSVNNDMIVTDNNGAVKFPQLCKFCDVRFSTCDNQKSCMSNCSITSICEKPQEVCVAVWRKNDENITLETVCHDPKLPYHDFILEDAASPKCIMKEKKKPGETFFMCSCSSDECNDNIIFSEEYNTSNPD
light 2: DIVMTQSPSSLTATARERVTMSCKSSQSLLNSGNQKNYLTWYQQKPGQPPKLLIYWASTRESGVPDRFTGSGSGTDFTLTVSSVQAEDLAVYYCQNAYFYPFTFGSGTKLEIKRTVAAPSVFIFPPSDEQLKSGTASVVCLLNNFYPREAKVQWKVDNALQSGNSQESVTEQDSKDSTYSLSSTLTLSKADYEKHKVYACEVTHQGLSSPVTKSFNRGEC
notes: also called constructed antibody CNT-D; trifunctional antibody
B2: CNT-E (other)
light: DIVMTQSPSSLTATARERVTMSCKSSQSLLNSGNQKNYLTWYQQKPGQPPKLLIYWASTRESGVPDRFTGSGSGTDFTLTVSSVQAEDLAVYYCQNAYFYPFTFGSGTKLEIKRTVAAPSVFIFPPSDEQLKSGTASVVCLLNNFYPREAKVQWKVDNALQSGNSQESVTEQDSKDSTYSLSSTLTLSKADYEKHKVYACEVTHQGLSSPVTKSFNRGEC
heavy 1: EVQLVESGGGLVQPGGSLRLSCAASGITFSRSVMGWFRQAPGKLRELVAGITSDDNTDYADSVKGRFTISRDNSKNTLYLQMNSLRAEDTAVYYCNILPDSRLGWGQGTLVTVSSGGGGSGGGGSGGGGSEVQLVESGGGLVKPGGSLKLSCTASGFTFSSYVMSWVRQTPEKRLEWVATINDGGSYTYYPDNLKGRFTISRDNAKNNLYLQMSHLRSEDTARYYCSVLRRGNAMDYWGQGTSVTVSS[human IgG1 constant region with changes not spelt out]GGSGGGGSGGGGSGGGGSGIPPHVQKSVNNDMIVTDNNGAVKFPQLCKFCDVRFSTCDNQKSCMSNCSITSICEKPQEVCVAVWRKNDENITLETVCHDPKLPYHDFILEDAASPKCIMKEKKKPGETFFMCSCSSDECNDNIIFSEEYNTSNPD
heavy 2: EVQLVESGGGLVKPGGSLKLSCTASGFTFSSYVMSWVRQTPEKRLEWVATINDGGSYTYYPDNLKGRFTISRDNAKNNLYLQMSHLRSEDTARYYCSVLRRGNAMDYWGQGTSVTVSS[human IgG1 constant region with changes not spelt out]GGSGGGGSGGGGSGGGGSGIPPHVQKSVNNDMIVTDNNGAVKFPQLCKFCDVRFSTCDNQKSCMSNCSITSICEKPQEVCVAVWRKNDENITLETVCHDPKLPYHDFILEDAASPKCIMKEKKKPGETFFMCSCSSDECNDNIIFSEEYNTSNPD
notes: also called constructed antibody CNT-E; trifunctional antibody

Tests used:
TGFβ1 = biological target: T2, TGFβ1 (UniProt P01137 fragment, limits assumed); assay: ELISA, TGFb1 coated at 1 ug/mL, HRP goat anti-human IgG-Fc
Sequence of TGFβ1 (P01137 279-390 limits assumed): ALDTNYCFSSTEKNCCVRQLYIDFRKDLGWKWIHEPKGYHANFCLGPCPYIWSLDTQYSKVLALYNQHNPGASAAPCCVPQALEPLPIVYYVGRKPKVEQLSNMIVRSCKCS
T2 construct: also called TGFβ1 protein
Experimental: TGFβ1 was diluted to 1 μg/mL with PBS buffer at pH 7.4, added into the 96-well ELISA plate at 100 μL per well, coated overnight at 4° C., and blocked with 1% BSA blocking solution for 1 hour. The plate was washed 3 times with PBST, and the constructed expressing antibodies were diluted to 20 µg/mL with 0.5% BSA sample diluent as the starting concentration, and then diluted by 3-fold gradient (11 gradients in total). A negative control (blank well and IgG1 isotype control) and a positive control were set, and the positive control was TGF-βR2 (Acro, Cat: TG2-H5252), and incubated at 37° C. for 1 h at 100 μL per well. The plate was washed 3 times with PBST, and then HRP-labelled goat anti-human IgG-Fc was diluted with the sample diluent at 1:10000. 100 μL was added into each well, and incubated at room temperature for 1 hour. The plate was washed 4 times with PBST, and 100 μL of TMB substrate was added into each well, and incubated at room temperature without light for 10 minutes. 100 μL of 1 M HCl solution was added into each well to terminate the color development reaction. The absorbance value of each well in the 96-well plate was determined by selecting the wavelength of 450 nm and the reference wavelength of 570 nm on a multifunctional enzyme marker, and the absorbance value (OD)=OD₄₅₀ₙₘ−OD₅₇₀ₙₘ. The logarithm of the concentration of the constructed antibodies were taken as the abscissa, and the measured absorbance value of each well was taken as the ordinate, and the Sigmoidaldose-response (Variable Slope) method (GraphPad Prism software, GraphPad Software, San Diego, California) was selected for nonlinear regression to obtain the binding curve of the target antibodies to the TGFβ1 protein.

Human-NKP30-His = biological target: T1, Human-NKP30-His; assay: ELISA, Human-NKP30-His coated at 0.5 ug/mL, HRP goat anti-human IgG-Fc
Experimental: Human-NKP30-His was diluted to 0.5 μg/mL with PBS buffer at pH 7.4, added into the 96-well ELISA plate at 100 μL per well, coated overnight at 4° C., and blocked with 1% BSA blocking solution for 1 hour. The plate was washed 3 times with PBST, and the constructed antibodies were diluted to 10 μg/mL with 0.5% BSA sample diluent as the starting concentration, and then diluted by 3-fold gradient (11 gradients in total). A negative control (blank well and IgG1 isotype control) and a positive control were set, and the positive control was a NKP30 humanized antibody (sequence shown in SEQ ID No.32), and incubated at 37° C. for 1 h at 100 μL per well. The plate was washed 3 times with PBST, and then HRP-labelled goat anti-human IgG-Fc was diluted with the sample diluent at 1:20000. 100 μL was added into each well, and incubated at room temperature for 1 hour. The plate was washed 4 times with PBST, and 100 μL of TMB substrate was added into each well, and incubated at room temperature without light for 10 minutes. 100 μL of 1 M HCl solution was added into each well to terminate the color development reaction. The absorbance value of each well in the 96-well plate was determined by selecting the wavelength of 450 nm and the reference wavelength of 570 nm on a multifunctional enzyme marker, and the absorbance value (OD)=OD₄₅₀ₙₘ−OD₅₇₀ₙₘ. The logarithm of the concentration of the constructed antibodies were taken as the abscissa, and the measured absorbance value of each well was taken as the ordinate, and the Sigmoidaldose-response (Variable Slope) method (GraphPad Prism software, GraphPad Software, San Diego, California) was selected for nonlinear regression to obtain the binding curve of the target antibody to NKP30 protein.

Row | Binder | EC50 (read off the curve) (TGFβ1) | EC50 (read off the curve) (Human-NKP30-His)
1 | B1 | ~0.05 mg/L | ~0.06 mg/L
2 | B2 | ~0.1 mg/L | ~0.05 mg/L
